# In the supplement of paper PMC11417369:
# The list shows a part of the results.
# Tested on: PfSIP2 AP2 domain 1 (GST-tagged)
# Assay: gcPBM binding intensity (ln(normalized median fluorescence intensity)); higher = stronger DNA binding
# Outline: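 An Agilent 4 × 180k array of primer-extended double-stranded 36-bp intergenic genomic probes, with negative controls, was incubated for 1 h with GST-tagged P. falciparum DNA-binding domains expressed in E. coli. Alexa488 anti-GST antibody detected bound protein, scanned at 488 nm. Binding intensity is the highest Masliner-normalised natural-log median intensity across replicate spots of either probe orientation.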
row,Sequence,gcPBM binding intensity (ln)
1,TCTCTATAAATAAATACATGCATATAATAAAGAATT [TGCATGCA_site710],6.92
2,TATTTAAAAATATATACACACATTTTATATTATTAT [CACACA_site781],6.88
3,CCTTATTATTATTTTACACACGTCCTAATAAGAGGA [CACACA_site1319],7.2
4,AAAAACAAAAAAGAAGCACACATATATATATATATA [CACACA_site8779],9.66
5,AATATATAAATAAATACACACATAAAATAGAAATAT [CACACA_site1663],7.25
6,TTTATCTGATATATTACACACAAAAAAAAAAAAAAA [CACACA_site7637],6.98
7,AATATTATATATATGGGTACTAATTCCTTTAATTTC [XGTACX_site102],6.72
8,TATTTTACAAAATAAGGTACGTAAATATATGGTAGG [XGTACX_site2133],7.43
9,AAATATCTTTTATATTGTACATATTCCTTATGTGGA [XGTACX_site7638],6.94
10,TAATAAATAAAATATGCACACAAATATAGGAAACAA [CACACA_site8820],9.17
11,ATATATATATATATATGTACATAATAATATATATTA [XGTACX_site111],9.6
12,TAAAAGGTGTATATAATACACACGTGGGATTAGAAT [CACACA_site610],6.97
13,AAAAAATATACATATACACACATATGTATATAGAAT [CACACA_site2170],6.93
14,TATATAAAGCATTGTAGTACTACCAATATTTTTTTT [XGTACX_site3523],7.09
15,AAAATAAACAATGAACAATAAACAATGAACAATGAA [CACACA_negctrl_site1194],6.91
16,AAAATATTATAAATTTGTACTTATAAATATTGTATA [XGTACX_site8165],6.88
17,ATATGTTATATGTAATGTACTTTTGATGTATATATT [XGTACX_site8615],7.05
18,CGTTATATATATAAAAGTACAAAAATTAAACATTCC [XGTACX_site4568],7
19,ATATGTAAATAAATATGTACTCATTTATTATTTTAT [XGTACX_site8748],7.06

row,Sequence,gcPBM binding intensity (ln)
1,ATATGTATATTTTTTTGTACGTATTTATGTGTGTGT [XGTACX_site2093],7.5
2,ATATATACAAGTATTTTTTTTTCAAACATTATTTTT [CACACA_negctrl_site1808],7.09
3,ATATATATAATATAATGTACGTATAATAATATGAGA [XGTACX_site2282],7.71
4,TAATTCGCAAAAGAAAGAAATTAAGAAAAAGAAAAA [XGTACX_negctrl_site614],6.62
5,TTCAATAGTAAGTATACACACATATATATATATAAA [CACACA_site2687],7.17
6,TTTCTTTTTTTTTTTTCATTGATCCATTTATGATTA [TGCATGCA_negctrl_site225],6.76
7,TTATAGGTTCTATACATATATTTATATATGTACAGA [CACACA_negctrl_site60],6.9
8,TTTTTAAAAATATACACACACAGATATTATAGATAT [CACACA_site6511],7.01
9,CAAGCTATGTATTCTACACACACATACACCCATATA [CACACA_site9133],7.03
10,AGTATACATATATATACACACACACCGATATATATA [CACACA_site8357],7.33
11,TAAAAAAAATAAACGTGTACATAAAAATGAATATGT [XGTACX_site119],7.35
12,TTAATATATTAAATCTTACACACTAAAAAATATGTA [CACACA_site307],6.71
13,GAAAATATTATAGCACCACACACTTATTTTATATAT [CACACA_site2265],7.68
14,AACGTTAAAAAAAAAATATATATAAGGAGAAAGCAC [XGTACX_negctrl_site338],8.15
15,TATGCGTCTTGCCTTGCACACTTTTATGAAAAAAAA [CACACA_site5174],7.34
16,AAAAAAAAAAATATATTATTTTACTTGTTTATTTTT [GTGCAC_negctrl_site435],6.87
17,AATAATCAAATATTAAAAATTGTGCAAAAAAAAAAA [XGTACX_negctrl_site399],7.13
18,TCGTACTTGTATTATGCACACATATAATTAAACATA [CACACA_site9089],8.2
19,TATGAAAAAATATATACACACATAATAAAGGTATAT [CACACA_site3737],6.9

row,Sequence,gcPBM binding intensity (ln)
1,TAATATTATATATAAACACACATACCCATGTAAATA [CACACA_site5170],7.09
2,TTTGTTTTAAATATTATACACACGTAAAAGTATAAT [CACACA_site7954],6.98
3,TAATATTTCATTAGGTGTACACTACATAGTAGTAGA [XGTACX_site366],7.05
4,TATAAATATTTTATTGTACACACTTTTTATGAATGA [CACACA_site3136],7.01
5,GTTTGTTTGTTTGTTCGTACATATATAAAATAAAAA [XGTACX_site4731],7.48
6,AGACCTATGATATATACACACATATATTTATTTATA [CACACA_site6630],6.98
7,TATATAACTAAAATAACACACATATATAAAAATATA [CACACA_site7416],6.79
8,ATTATAACACTTATTTCATTTGTATGCCCTTTAAAA [CACACA_negctrl_site955],7.11
9,ATAATCAACATTAGGTGTACAAAATATGTATGTTTT [XGTACX_site6696],7
10,TATATATTTTTTAATTGTACACTTCAAAAACAAAAA [XGTACX_site5595],7.23
11,GTAGTTATATTAAGGGTGCTTAATTAGATTAAACAA,9.15
12,ATTGAACACATCTATGCATGCACGGAAAAAAGTACA [TGCATGCA_site401],9.54
13,AAAAACTTAATATTGACACACATTTTTAAGAATAAT [CACACA_site4291],6.76
14,AGAATAAATAAATATTGTACATATAAAATATATATA [XGTACX_site896],7.09
15,TTCAAATTTCCACATACACACCTTGTAGATATATAT [CACACA_site7984],7.08
16,TATGCAATATATTATATTCTGTAAATATTATATATT [TGCATGCA_negctrl_site67],6.65
17,TTTTTTAAAATATGGACACACATATATATATCTGTA [CACACA_site5535],6.79
18,TATAAAAAATTAAAATTTTTCTTATTTTTTTTAGAT [TGCATGCA_negctrl_site125],6.63
